# The whole screen tested about 340,000 compounds, of which about 20 (0.006%) were called active. The inconclusive results got no clear call from the source; some entries with a clear call stand among them for comparison. Calls follow the shape of the dose curve; as a rule, active = well fitted inhibition curve with a large enough effect; inconclusive = small, poorly fitted or top-dose-only effect; inactive = no such curve, though single readings can be large or run the other way. Potencies beside an inconclusive call are fits to weak or partial responses and may not hold up.
# Molecular target: Sphingomyelin phosphodiesterase (Homo sapiens) (UniProt P17405)
# Assay: Inhibitors of Secretory Acid Sphingomyelinase (S-ASM): qHTS
# Details: placental ASM, HMU-PC fluorogenic substrate (series up to 57.5 µM), 60 min; activity change, negative = inhibition: at the top concentration
# Method in brief: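 Steps: dispense placental human ASM, pin compound, wait 10 min at room temperature, add HMU-PC0 substrate at 9 uM final, incubate 60 min at 37 °C, add stop solution raising pH to 10, read fluorescence.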
# Potency is read from the fitted curve at half-maximal effect; tags tell the direction and shape of the fitted curve.
# UniProt P17405, sequence (P17405 whole entry, looked up): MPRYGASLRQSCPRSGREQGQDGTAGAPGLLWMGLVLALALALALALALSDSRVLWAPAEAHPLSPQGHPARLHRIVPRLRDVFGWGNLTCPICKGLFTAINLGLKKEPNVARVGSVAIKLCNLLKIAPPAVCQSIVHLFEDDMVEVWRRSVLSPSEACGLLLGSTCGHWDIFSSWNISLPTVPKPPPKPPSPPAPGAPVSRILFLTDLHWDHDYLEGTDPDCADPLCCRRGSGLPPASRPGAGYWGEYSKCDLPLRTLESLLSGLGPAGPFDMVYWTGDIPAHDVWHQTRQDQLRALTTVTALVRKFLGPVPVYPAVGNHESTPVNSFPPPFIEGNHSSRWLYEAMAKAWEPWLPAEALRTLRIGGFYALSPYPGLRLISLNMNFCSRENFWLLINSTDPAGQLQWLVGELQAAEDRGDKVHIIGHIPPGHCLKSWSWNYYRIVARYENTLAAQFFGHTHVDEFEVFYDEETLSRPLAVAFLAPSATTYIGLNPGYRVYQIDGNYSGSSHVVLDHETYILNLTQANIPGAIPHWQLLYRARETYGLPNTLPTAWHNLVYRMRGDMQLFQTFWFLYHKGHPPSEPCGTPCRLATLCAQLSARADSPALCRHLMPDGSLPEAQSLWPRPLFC
SMILES,Potency,"activity change, negative = inhibition"
COc1ccc2[nH]cc(/C=C/c3cc[n+](C)cc3)c2c1,"inconclusive: 251 µM [inhibitor, partial curve, poor fit]",–
CCCCC(CC)CN1C(=O)/C(=C/c2ccncc2)SC1=S (stereo unspecified),"inconclusive: 89.1 µM [inhibitor, single point]",–
CCOc1ccc(C2C(C#N)=C(N)Oc3cc(O)ccc32)cc1OCC (stereo unspecified),–,inactive: 2.59%
Cc1ccc(NC(=S)Nc2cccc(-c3n[nH]c(=S)o3)c2)cc1,"inconclusive: 12600 µM [inhibitor, partial curve, poor fit]",–
O=c1c(-c2c(O)cc(O)c3c2O[C@H](c2ccc(O)cc2)CC3)c(-c2ccc(O)cc2)oc2cc(O)cc(O)c12,"inconclusive: 89.1 µM [inhibitor, single point]",–
CCN(CC)C(=O)C1CCCN(c2ncnc3c2cnn3-c2ccc(Cl)cc2)C1 (stereo unspecified),"inconclusive: 178 µM [inhibitor, partial curve, poor fit]",–
COc1cccc(CNC(=O)c2cc(S(=O)(=O)N3CCCC3)cn2C)c1,"inconclusive: 70.8 µM [inhibitor, partial curve]",–
CN(CCNC(=O)c1c[nH]c2c1ccc1ccccc12)CCNC(=O)c1c[nH]c2c1ccc1ccccc12,"inconclusive: 79.4 µM [inhibitor, single point]",–
O=C(Nc1cc(Cl)ccc1O)c1cc2n(n1)C(C(F)(F)F)CC(c1ccc3c(c1)OCO3)N2 (stereo unspecified),"inconclusive: 126 µM [inhibitor, partial curve]",–
Cc1ccc(-c2csc(NC(=O)c3cccc(N4C(=O)CCC4=O)c3)n2)o1,"inconclusive: 112 µM [inhibitor, partial curve, poor fit]",–
CC1Cc2cc(-c3csc(NC(=O)Cc4ccccc4)n3)ccc2N1S(C)(=O)=O (stereo unspecified),"inconclusive: 398 µM [inhibitor, partial curve, poor fit]",–
O=C(NNS(=O)(=O)c1ccc2ccccc2c1)c1cc(-c2ccccn2)nc2ccccc12,"inconclusive: 89.1 µM [inhibitor, single point]",–
CCOC(=O)CCS(=O)(=O)c1nc(-c2ccccc2)cc(C(F)(F)F)n1,–,inactive: -0.142%
Cc1ccc(-c2nn3c(C)nnc3s2)cc1NC(=O)c1ccc(-c2ccc(Cl)cc2Cl)o1,–,inactive: 13.1%
Cc1cccc(NC(=O)c2cc(NC(=O)C3CCCCC3C(=O)O)ccc2N2CCCCC2)c1 (stereo unspecified),"inconclusive: 112 µM [inhibitor, single point]",–
Cc1ccc(N=Nc2c(N)nn(-c3ccccc3)c2N)cc1,"inconclusive: 501 µM [inhibitor, partial curve, poor fit]",–
CC(C)CCn1cnc2c(sc3nc4c(cc32)CSC(C)(C)C4)c1=O,–,inactive: 2.69%
CCCNC(=O)c1ccccc1C(=O)NC1(C(=O)NCCC)CCCC1,–,inactive: -0.0636%
COc1ccc(CCC(=O)OCC(=O)Nc2sccc2C#N)cc1,"inconclusive: 89.1 µM [inhibitor, partial curve, poor fit]",–
O=C1N/C(=N\S(=O)(=O)Cc2ccccc2)S/C1=C/c1cc([N+](=O)[O-])ccc1O,"inconclusive: 100 µM [inhibitor, partial curve, poor fit]",–
CCC(C(=O)OC)(C(=O)OC)c1ccc([N+](=O)[O-])cc1,–,inactive: -2.43%

SMILES,Potency,"activity change, negative = inhibition"
Nc1nc(Nc2ccccc2)nc(NC2CCCCC2)c1[N+](=O)[O-],"inconclusive: 50.1 µM [inhibitor, partial curve, poor fit]",–
O=C(O)c1cc([N+](=O)[O-])ccc1NCc1ccccc1,–,inactive: 12.2%
O=C(CCc1nc2ccccc2c(=O)[nH]1)Nc1cc(C(F)(F)F)ccc1N1CCCC1,–,inactive: -2.25%
CCCc1ccc(-c2cc(NC(=O)CSc3nnc(N)s3)n(-c3ccccc3)n2)cc1,"inconclusive: 447 µM [inhibitor, partial curve, poor fit]",–
O=C1NC(c2ccccc2)C(C(=O)c2cccs2)C(O)(C(F)(F)F)N1 (stereo unspecified),–,inactive: 0.673%
CCCCCCSc1ccc([C@H]2N[C@@](C)(C(=O)OC)[C@H]3C(=O)N(C)C(=O)[C@@H]23)cc1,"inconclusive: 79.4 µM [inhibitor, single point]",–
COc1ccc(C2C(=O)c3ccccc3C2=Nc2ccc(Br)cc2)cc1 (stereo unspecified),"inconclusive: 70.8 µM [inhibitor, partial curve, poor fit]",–
CCCCCCCCCCCCCCCCn1cc[n+](CC(C)=O)c1,"inconclusive: 44.7 µM [inhibitor, partial curve, poor fit]",–
O=C(NCCc1ccccc1)C(c1cccs1)N(C(=O)CCl)c1ccc(Cl)cc1 (stereo unspecified),–,inactive: -2.63%
O=C(Cc1cccs1)Nc1nc2c(ccc3ccccc32)s1,"inconclusive: 501 µM [inhibitor, partial curve, poor fit]",–
CCOC(=O)/C(C#N)=C/C=C1\C=Cc2ccccc2N1CC,"inconclusive: 100 µM [inhibitor, partial curve, poor fit]",–
CC(C)(C)NC(=O)C(c1ccc(-c2ccccc2)cc1)N(C[C@H]1CC[C@@H]([C@@H]2CC[C@H](CO)O2)O1)C(=O)c1ccc2ccccc2c1 (stereo partly specified),"inconclusive: 112 µM [inhibitor, partial curve]",–
CCOC(=O)c1cc2c(=Cc3ccc(N(C)C)cc3)c3ccccc3n2[n+]1C,"inconclusive: 126 µM [inhibitor, partial curve, poor fit]",–
COc1cc(/C=C/C(=O)NCCc2ccc(S(N)(=O)=O)cc2)ccc1OCC#N,–,inactive: -4.04%
COc1cc(/C=N/NC(=S)Nc2cccc(Cl)c2C)ccc1OCC(=O)N1CC(C)OC(C)C1 (stereo unspecified),–,inactive: -8.41%
CS(=O)(=O)N1CCC(c2noc(-c3ccc(C(F)(F)F)cc3)n2)CC1,"inconclusive: 100 µM [inhibitor, partial curve, poor fit]",–
CCOC(=O)c1c(C)n(-c2ccc(C)cc2)c2ccc(OCC(O)CNCC3CCCO3)cc12 (stereo unspecified),"inconclusive: 100 µM [inhibitor, partial curve]",–
Cc1ccc(C)c(N2CCN(C(=O)CCn3c(=S)[nH]c4cc5c(cc4c3=O)OCO5)CC2)c1,"inconclusive: 251 µM [inhibitor, partial curve, poor fit]",–
Nc1nc(-c2ccccc2)c(N=Nc2ccccc2Cl)s1,"inconclusive: 89.1 µM [inhibitor, partial curve]",–
O=C(Nc1ccc(Oc2ccc(Cl)cc2)c(Cl)c1)c1cc(I)cc(I)c1O,–,inactive: -2.33%
COc1ccc(N2C(=S)NC3c4cc(Cl)ccc4OC2(C)C3C(=O)N(C)C)cc1 (stereo unspecified),"inconclusive: 25.1 µM [inhibitor, partial curve, poor fit]",–

SMILES,Potency,"activity change, negative = inhibition"
O=c1[nH]c2ccc(Cl)cc2c(-c2ccccc2)c1SC(=S)N1CCOCC1,"inconclusive: 126 µM [inhibitor, partial curve, poor fit]",–
O=C(N/N=C/c1cccc(O)c1)c1ccc(COc2ccccc2Br)cc1,"inconclusive: 70.8 µM [inhibitor, single point]",–
Fc1ccccc1CSCc1nc2ccccc2[nH]1,–,inactive: -1.88%
Cn1c(SCC(=O)N/N=C/C=C/c2ccccc2[N+](=O)[O-])nc2ccccc21,–,inactive: 1.31%
COc1cc(-c2cccc([C@H]3[C@@H]4C=CC[C@@H](C)[C@@H]4C(=O)N3Cc3ccccc3)c2)cc(OC)c1OC,"inconclusive: 251 µM [inhibitor, partial curve, poor fit]",–
CCOC(=O)c1ccc(N2N=C(C)/C(=C/C=C/c3ccco3)C2=O)cc1,"inconclusive: 398 µM [inhibitor, partial curve, poor fit]",–
COc1ccc(NS(=O)(=O)c2ccc3c(c2)[C@H]2C=CC[C@H]2[C@@H](c2ccc(C(=O)O)cc2)N3)cc1,"inconclusive: 100 µM [inhibitor, partial curve]",–
S=C(Nc1ccc(Nc2ccccc2)cc1)NC1CCCCCC1,"inconclusive: 2820 µM [inhibitor, partial curve, poor fit]",–
CCOC(=O)c1c(C)[nH]c(C(=O)N/N=C/c2ccc(Br)cc2)c1C,–,inactive: -2.22%
O=C(NC1CC1)C1=C[C@@H](C2CC2)C[C@@H](OCc2ccc(CO)cc2)O1,–,inactive: 8.65%
Cn1c(=O)c(Nc2ccc(O)cc2)c2c3c(cccc31)C(=O)c1ccccc1-2,"inconclusive: 126 µM [inhibitor, partial curve, poor fit]",–
CCOC(=O)c1c(-c2ccc(C)cc2)csc1NC(=O)C1CC=CCC1C(=O)O (stereo unspecified),"inconclusive: 63.1 µM [inhibitor, partial curve, poor fit]",–
Cc1ccc(S(=O)(=O)Nc2cc3c(C(=O)Nc4ccccc4)c(C)oc3c3ccccc23)cc1,"inconclusive: 794 µM [inhibitor, partial curve, poor fit]",–
Cc1nc(NCCOc2ccccc2)sc1C(=O)Nc1ccccc1,–,inactive: -0.86%
CCCN1CCc2c(sc(NC(=O)Cc3ccc(F)cc3)c2C(N)=O)C1,–,inactive: 30.7%
CCOC(=O)c1c(NC(=O)COC(=O)CCOc2ccc(C)cc2)sc(C(=O)N(C)C)c1C,"inconclusive: 100 µM [inhibitor, partial curve, poor fit]",–
CCOc1cc2c3c(c1)C1(Nc4ccccc4S1)C(=O)N3C(C)(C)CC2C (stereo unspecified),"inconclusive: 251 µM [inhibitor, partial curve, poor fit]",–
COC(=O)[C@]1(Cc2ccccc2)N[C@H](c2ccc(-c3ccc(OC)cc3)cc2)[C@@H]2C(=O)N(C)C(=O)[C@@H]21,"inconclusive: 112 µM [inhibitor, partial curve, poor fit]",–
O=S(=O)(NCc1ccccc1)c1ccccc1NCCc1ccccc1,"inconclusive: 2510 µM [inhibitor, partial curve, poor fit]",–

# Reference: PubChem BioAssay AID504937 (National Center for Advancing Translational Sciences (NCATS), 2011)
